Data taken from the antibiotic and cytotoxicity screens of Wong et al. (2023).
The other results are listed elsewhere or left out.

System: HSkMC (human skeletal muscle cells)
Assay: cytotoxicity call (relative viability < 0.9)
Conditions: 10 µM

Structure (SMILES) | cytotoxicity call
CC(C)c1ccccc1OC[C@@H](O)CN | inactive
C[C@H](CO)N1C[C@H](C)[C@@H](CN(C)C(=O)Nc2ccc(C(F)(F)F)cc2)OCCCC[C@H](C)Oc2ccc(NC(=O)c3ccncc3)cc2C1=O | inactive
C[C@H](CO)N1C[C@H](C)[C@H](CN(C)C(=O)Nc2ccc3c(c2)OCO3)OCCCC[C@H](C)Oc2ccc(NC(=O)Nc3ccc(C(F)(F)F)cc3)cc2C1=O | inactive
C[C@@H]1CN([C@@H](C)CO)C(=O)CCCn2nncc2CO[C@H]1CN(C)C(=O)Nc1cccc2ccccc12 | inactive
CC(CS)C(=O)N1CCCC1C(=O)O (stereo not given) | inactive
CCN1C(=O)S/C(=C\C(=O)O)C1=O | inactive
COc1ccc(NC(=O)Nc2ccc3c(c2)C(=O)N([C@@H](C)CO)C[C@H](C)[C@@H](CN(C)Cc2ccc(Cl)c(Cl)c2)OCCCC[C@@H](C)O3)cc1 | inactive
Cc1noc(N)c1C(=O)O | inactive
C[C@H](CO)N1C[C@H](C)[C@@H](CN(C)S(=O)(=O)c2cn(C)cn2)OCCCC[C@H](C)Oc2ccc(NS(=O)(=O)c3cccs3)cc2C1=O | inactive
CC(=O)Nc1ccc(S(=O)(=O)Nc2ccc([N+](=O)[O-])cc2)cc1 | inactive
C[C@H](O)C#Cc1cnc2c(c1)C(=O)N([C@H](C)CO)C[C@H](C)[C@H](CN(C)Cc1cncnc1)O2 | inactive
O=C(O)C[C@H]1Nc2ccccc2NC1=O | inactive
COCCN1CCC(CN)CC1 | inactive
C[C@H]1CN([C@@H](C)CO)C(=O)c2cccc(NC(=O)Nc3ccc(C(F)(F)F)cc3)c2O[C@@H]1CN(C)C(=O)Nc1ccc(C(F)(F)F)cc1 | active
CC1(C)OC2CC(=O)OCC23C1CC(=O)C1(C)C3CCC2(C)C(c3ccoc3)OC(=O)C3OC321 (stereo not given) | inactive
C[C@@H]1CCCCO[C@@H](CN(C)Cc2ccc3c(c2)OCO3)[C@@H](C)CN([C@H](C)CO)C(=O)c2cc(NC(=O)Cc3ccccc3)ccc2O1 | inactive
NCC[C@H]1CC[C@H](NC(=O)NC2CCCCC2)[C@@H](CO)O1 | inactive
O=C(C[C@H]1C[C@H]2c3cc(NS(=O)(=O)c4ccc(F)cc4)ccc3O[C@H]2[C@@H](CO)O1)NCCN1CCCCC1 | inactive
COc1ccc(S(=O)(=O)Nc2cccc3c2O[C@H](CN(C)C(=O)NC(C)C)[C@@H](C)CN([C@@H](C)CO)C3=O)cc1 | inactive
CC(C)CC#Cc1cnc2c(c1)C(=O)N([C@@H](C)CO)C[C@@H](C)[C@@H](CN(C)S(=O)(=O)c1ccccc1)O2 | inactive

Structure (SMILES) | cytotoxicity call
COc1ccc2c3c(n(c2c1)C)[C@H](CO)N(Cc1ccccc1)C[C@]13CCN(CC1)C(=O)c1ccccc1F | inactive
C[C@H]1CN([C@@H](C)CO)C(=O)c2cc(NC(=O)Nc3cccc4ccccc34)ccc2O[C@@H]1CN(C)C(=O)Nc1ccc(C(F)(F)F)cc1 | inactive
O=C(C[C@H]1C=C[C@H](NC(=O)c2cccc(F)c2)[C@H](CO)O1)NCCN1CCCC1 | inactive
COCC#Cc1ccc2c(c1)O[C@@H](CN(C)S(=O)(=O)c1ccc(C)cc1)[C@@H](C)CN([C@H](C)CO)S2(=O)=O | inactive
C[C@@H]1CCCCO[C@@H](CN(C)S(=O)(=O)c2ccc(F)cc2)[C@@H](C)CN([C@H](C)CO)C(=O)c2cc(NS(=O)(=O)c3cn(C)cn3)ccc2O1 | inactive
COc1ccc(S(=O)(=O)N(C)C[C@H]2OCCCC[C@H](C)Oc3ccc(NC(=O)CCC(F)(F)F)cc3C(=O)N([C@@H](C)CO)C[C@H]2C)cc1 | inactive
N[C@H]1CCCN(C(=O)c2cccs2)C1 | inactive
C[C@@H]1CN([C@@H](C)CO)C(=O)c2cc(NS(=O)(=O)c3cn(C)cn3)ccc2O[C@@H](C)CCCCO[C@@H]1CN(C)C(=O)Nc1cccc2ccccc12 | active
C[C@@H]1CCCCO[C@@H](CN(C)S(=O)(=O)c2cn(C)cn2)[C@@H](C)CN([C@@H](C)CO)C(=O)c2cc(NS(=O)(=O)c3cccs3)ccc2O1 | inactive
O=C(C1=C[C@@H](c2ccc(C(F)(F)F)cc2)C[C@@H](OCc2ccc(CO)cc2)O1)N1CCN(Cc2ccccc2)CC1 | inactive
COc1ccc(NC(=O)Nc2ccc3c(c2)C(=O)N([C@@H](C)CO)C[C@H](C)[C@H](CN(C)C(=O)Nc2ccc(F)cc2)OCCCC[C@@H](C)O3)cc1 | inactive
COc1ccc(-c2nc(N3CCOCC3)c3sc(CN(C)c4ncc(C(=O)NO)cn4)cc3n2)cn1 | active
C[C@H](CO)N1C[C@H](C)[C@H](CN(C)S(=O)(=O)c2ccc(Cl)cc2)Oc2c(NC(=O)c3cnccn3)cccc2C1=O | inactive
C[C@@H]1CN([C@H](C)CO)C(=O)c2cccc(NC(=O)C3CC3)c2O[C@H]1CN(C)S(=O)(=O)c1ccc(Cl)cc1 | inactive
C[C@H]1CN([C@@H](C)CO)C(=O)c2cccc(NS(C)(=O)=O)c2O[C@@H]1CN(C)Cc1ccc(C(=O)Nc2ccccc2N)cc1 | inactive
COc1ccccc1-c1ccc2c(c1)O[C@@H](CN(C)C(=O)c1cccnc1)[C@@H](C)CN([C@H](C)CO)S2(=O)=O | inactive
Nc1c[n+](N2CCOCC2)no1 | inactive
CN1CCN(C(=O)C[C@@H]2C=C[C@H](NS(=O)(=O)c3cccc(F)c3)[C@H](CO)O2)CC1 | inactive
C[C@@H]1CN([C@@H](C)CO)C(=O)c2cccc(NC(=O)CCCCCC(=O)Nc3ccccc3N)c2O[C@H]1CN(C)C(=O)Nc1ccc(F)cc1 | inactive
C[C@@H]1CN([C@H](C)CO)C(=O)c2cccc(NC(=O)Nc3ccc(C(F)(F)F)cc3)c2O[C@@H]1CN(C)Cc1ccncc1 | inactive
